Out of some 45,000 compounds screened, about 200 (0.44%) were called active. Another 7% or so got no clear call; they are omitted. The call rests on the fitted dose curve; in most records, active means well fitted activation curve with a large enough effect; inconclusive means small, poorly fitted or top-dose-only effect; inactive means no such curve, though single readings can be large or run the other way. Some of the results follow.
Potency means the concentration at half of the fitted maximal effect.

The nature of this assay: qHTS of TDP-43 Inhibitors: NCGC Sytravon Library Screen. Further: nearly all actives have a fitted effect of over 55% in size. On growth rescue (activation): 0% is about no effect. Conditions: yeast TDP-43 toxicity rescue, BacTiter-Glo growth, 24 h; series mostly up to 46.1 µM; growth rescue (activation): at the top concentration. The procedure, abridged:
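TDP-43-expressing yeast, pregrown in raffinose, seeded at OD600 0.02 in galactose medium with compound for 24 hr at 30 deg C. Growth read by BacTiter-Glo luminescence, so rescue of toxicity appears as activation.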
As to `Cc1nc2nc(C)c(NS(=O)(=O)c3ccc4c(c3)CCCC4)c(=O)n2[nH]1`, the “growth rescue (activation)” value is inactive: -15.1%.

As to `CCOC(=O)C(C(C)=O)c1nc(C)nc2c1nnn2Cc1ccccc1Cl` (stereo not drawn), the “growth rescue (activation)” value was inactive: -12.6%.

With `Cn1c(NCCc2ccncc2)nc2cc(-c3cccc(C(F)(F)F)c3)sc2c1=O`, the “growth rescue (activation)” value was inactive: 15.8%.

`CCOc1ccc(C(=O)Nc2ccc(N3CCN(C)CC3)cc2)cc1[N+](=O)[O-]`: the “growth rescue (activation)” value was inactive: 6.94%.

On to `Cc1ccc(S(=O)(=O)N(CC(=O)NCC2CCCO2)Cc2ccc(F)cc2)cc1` (stereo not drawn), for which the “growth rescue (activation)” value is inactive: 2.7%.

`CC(=O)c1cccc(-c2ccnc3c2CC(C(=O)Nc2cccc(NS(C)(=O)=O)c2)O3)c1` (stereo not drawn): the “growth rescue (activation)” value is inactive: 10.1%.

On to `O=C(COc1ccccc1F)NCc1nc2ccccc2[nH]1`, for which the “growth rescue (activation)” value is inactive: 2.03%.

`N#Cc1nc(Cc2cccc3ccccc23)oc1NCc1ccc2c(c1)OCO2`: the Potency is active: 12.6 µM.

Consider `Cc1ccc(NC(=S)N2CCN(C(=O)c3ccccc3)CC2)c(C)c1`, for which the “growth rescue (activation)” value was inactive: -3.75%.

In the case of `S=C(Nc1ccccc1)N1CCN(C(=S)c2ccccc2)CC1`, the “growth rescue (activation)” value was inactive: 11.8%.

For `CC1=NN(c2ccccc2)C(=O)/C1=C\C=C1\N(C)c2ccccc2C1(C)C`, the “growth rescue (activation)” value was inactive: 29.5%.

With `CCN1C(=O)/C(=C\c2cccn2-c2ccc([N+](=O)[O-])cc2)N(CC)C1=S`, the “growth rescue (activation)” value is inactive: 17%.

For the molecule `Cc1c(C(=O)Nc2ccc(C(=O)Nc3ccccc3)cc2)cccc1[N+](=O)[O-]`, the “growth rescue (activation)” value is inactive: -11.8%.

As to `COc1ccc(-c2nnc(SCC(=O)O)n2Cc2ccccc2)cc1`, the “growth rescue (activation)” value was inactive: 9.24%.

Take `O=C(NC(=Nc1nc2ccccc2o1)NC(=O)c1ccccc1)c1ccccc1`: the “growth rescue (activation)” value was inactive: -8.37%.

Take `Cc1ccccc1NC(=O)C1CCN(S(=O)(=O)c2cccc3nonc23)CC1`: the “growth rescue (activation)” value is inactive: 7.91%.

For the molecule `O=C(c1ccc(F)cc1)C(C(=O)N1CCCCC1)n1ccccc1=O` (stereo not drawn), the “growth rescue (activation)” value was inactive: 14%.

As to `COc1ccc(C)cc1C(=O)CCC(=O)NC1CCCCC1`, the “growth rescue (activation)” value is inactive: 9.66%.

On to `CN(C)CCCOc1ccc(-c2cc3nc(NCc4cccnc4)n(C)c(=O)c3s2)cn1`, for which the “growth rescue (activation)” value is inactive: 13.8%.

With `CCCOc1ccc(/C=N/NC(=O)c2ccc3c(c2)OCO3)c(OCCC)c1`, the “growth rescue (activation)” value is inactive: -7.92%.

For the molecule `CCCC(=O)Nc1cccc(NC(=O)c2cccc([N+](=O)[O-])c2C)c1`, the “growth rescue (activation)” value is inactive: 12.1%.

Turning to `O=C(C1CCN(C2CCN(Cc3ccc4cc(F)ccc4n3)CC2)CC1)N1CCCC1`, the “growth rescue (activation)” value is inactive: -1.16%.

Consider `CC(=O)N1c2ccccc2C(=O)C1N(C)c1ccc(C)cc1` (stereo not drawn), for which the “growth rescue (activation)” value is inactive: 17.2%.

Consider `COc1ccc(OC)c(S(=O)(=O)N2Cc3ccccc3CC2C(=O)Nc2ccc(Cl)cc2)c1` (stereo not drawn), for which the “growth rescue (activation)” value is inactive: 25.7%.

As for `CCN(CC)S(=O)(=O)c1cc(NC(=O)NCCCl)ccc1C`, the “growth rescue (activation)” value is inactive: 32.2%.

Regarding `CCCc1ccc(-c2csc(NC(=O)Cc3cccs3)n2)cc1`, the “growth rescue (activation)” value was inactive: 1.21%.

As to `CCOc1ccc(S(=O)(=O)NCCC(=O)NC2CCC(C)CC2)cc1` (stereo not drawn), the “growth rescue (activation)” value was inactive: 1.51%.

For the molecule `C=CC[n+]1c(C)csc1Nc1cccc(Br)c1`, the “growth rescue (activation)” value was inactive: 21.2%.

`O=C(Cn1cccn1)N1CCCC(N2CCN(c3cccc(C(F)(F)F)c3)CC2)C1` (stereo not drawn): the “growth rescue (activation)” value is inactive: 11.4%.

In the case of `Cc1ccc(Cl)c(NC(=O)CCl)c1Cl`, the “growth rescue (activation)” value is inactive: 7.72%.

Consider `Cc1ccc(NC(=O)C(=O)NCCCN2CC(C(=O)O)CC2=O)cc1` (stereo not drawn), for which the “growth rescue (activation)” value was inactive: 0.376%.

`COc1cccc(CNC(=O)c2oc3ccc4c(c3c2C)C(=O)CC(C)(C)O4)c1OC`: the “growth rescue (activation)” value is inactive: 26.9%.

`COc1ccc(CCNC(=O)CN2C(=O)NC(Cc3c[nH]c4ccccc34)C2=O)cc1` (stereo not drawn): the “growth rescue (activation)” value is inactive: 4.25%.

As to `CCOc1ccc(-c2nc(CSc3nnc(N)s3)cs2)cc1`, the “growth rescue (activation)” value is inactive: 14.5%.

For the molecule `Oc1c(C=Nc2ccc(Cl)cn2)sc2ccccc12`, the “growth rescue (activation)” value is inactive: -22.3%.

For `COc1cc(/C=C/c2ccc3cccc(O)c3n2)cc(Br)c1OC`, the “growth rescue (activation)” value is inactive: 18%.

Consider `Cc1onc(-c2c(F)cccc2Cl)c1C(=O)OCC(=O)c1c(N)n(C)c(=O)n(C)c1=O`, for which the “growth rescue (activation)” value is inactive: 13.4%.

Regarding `Cc1cc(C)n2cc(CSc3ccccn3)nc2n1`, the “growth rescue (activation)” value was inactive: -5.85%.

On to `NS(=O)(=O)c1ccc(CCNC(=O)CCCn2c(SCC(=O)N3CCCC3)nc3ccsc3c2=O)cc1`, for which the “growth rescue (activation)” value is inactive: -8.18%.

As for `CC(=O)Nc1ccc(S(=O)(=O)Nc2nc(-c3ccc(C(C)(C)C)cc3)cs2)cc1`, the “growth rescue (activation)” value is inactive: 3.13%.

Take `O=S(=O)(Cc1ccccc1)Nc1ccc(Br)cn1`: the “growth rescue (activation)” value is inactive: -6.63%.

Turning to `CCc1ccc(C(=O)Nc2cc(C)on2)o1`, the “growth rescue (activation)” value was inactive: 7.12%.

On to `O=C(Oc1ccc2ccc(=O)oc2c1)C1CCCCC1`, for which the “growth rescue (activation)” value is inactive: -3.27%.

`COc1ccccc1/C=N/NC(=O)c1cccc(NC(=O)c2ccccc2C)c1`: the “growth rescue (activation)” value is inactive: 3.65%.

Take `O=C(/C=C/Nc1nccs1)C(F)(F)Cl`: the “growth rescue (activation)” value is inactive: -5.05%.

Turning to `O=C(NCc1ccccc1)c1cc(C2CCCN(C(=O)C3CCCCC3)C2)on1` (stereo not drawn), the “growth rescue (activation)” value is inactive: 0.857%.

Turning to `CC(C)(C)C(=O)Nc1nnc(SCC(=O)NC2CCCCC2)s1`, the “growth rescue (activation)” value was inactive: -13.4%.

Regarding `Cc1c(C(=O)N2CCCc3ccccc32)oc2ccccc12`, the “growth rescue (activation)” value was inactive: 27%.

With `O=C(c1ccccc1)N1CCOC12CCN(c1ncc(C(F)(F)F)cc1Cl)CC2`, the “growth rescue (activation)” value was inactive: 33%.

With `COc1ccc(C2=NN(C(=O)C(O)c3ccccc3)C(O)(C(F)(F)F)C2)cc1` (stereo not drawn), the “growth rescue (activation)” value is inactive: 19.3%.

As to `COc1cc(CCC(=O)OCC(=O)Nc2c(F)cccc2F)cc(OC)c1OC`, the “growth rescue (activation)” value is inactive: 3.61%.

As for `Cc1cc(=S)c2ccccc2[nH]1`, the “growth rescue (activation)” value was inactive: 0.29%.

In the case of `COc1ccc(C(N)c2csc(Nc3ccc(C(=O)c4ccccc4)cc3)n2)cc1` (stereo not drawn), the “growth rescue (activation)” value is inactive: 8.51%.

The values above are taken from PubChem BioAssay AID1347073 (National Center for Advancing Translational Sciences (NCATS), 2019).
